According to PubChem BioAssay AID1345082 (National Center for Advancing Translational Sciences (NCATS), 2018):
About 4,000 (4.3%) of roughly 94,000 compounds were called active. This list was built around the results that the source calls inconclusive (neither active nor inactive); the mix of calls is not that of the screen. The call rests on the fitted dose curve; in most records, active means well fitted inhibition curve with a large enough effect; inconclusive means small, poorly fitted or top-dose-only effect; inactive means no such curve, though single readings can be large or run the other way. Potencies of inconclusive entries are doubtful fits and often do not repeat.

Assay: Cytotoxic Profiling in NIH 3T3 Cell Line of Diverse Libraries Using Quantitative High-Throughput Screening; further: nearly all actives have a fitted effect of over 55% in size
Conditions: NIH 3T3 viability, CellTiter-Glo ATP luminescence, 48-72 h; activity change, negative = cytotoxicity: at 96.7 µM (top of the series) unless noted; series mostly up to 96.7 µM
In short: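 Cytotoxicity is measured as loss of cellular ATP: NIH 3T3 cells (400/well) are exposed to compound for 48 or 72 hr at 37 °C, then CellTiter-Glo luminescence is imaged after 10 min at room temperature.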
On the % scale 0 is the no-effect control and ±100 the full control effect; potency means the concentration at half of the fitted maximal effect; tags describe the fitted curve by direction and shape.

Structure (SMILES)	Potency	activity change, negative = cytotoxicity
COc1ccc(NC(=O)CCC2CCCN(S(=O)(=O)c3cccc(F)c3)C2)c(OC)c1 (configuration not stated)	inconclusive: 79.4 µM [inhibitor, partial curve, poor fit]	–
O=C1Nc2ccccc2CNC12CCN(Cc1ccc(Cl)cc1)CC2	–	inactive: -16.2%
OCC1CN(Cc2cnc[nH]2)CCC12CCN(CCCn1cccn1)CC2 (configuration not stated)	–	inactive: 0.364%
Cc1nn(-c2ccccc2)c2c1C(C1CC1)N(C1CN(C(=O)Nc3ccccc3)C1)C2=O (configuration not stated)	inconclusive: 31.6 µM [inhibitor, partial curve]	–
COc1ccc(-c2nc(C3CC3)nc3c2CN(C(=O)c2ccc(C(F)(F)F)cc2)CC3)cc1	inconclusive: 56.2 µM [inhibitor, partial curve, poor fit]	–
COc1cccc(-c2c(C(=O)NCCc3ccc(Cl)cc3)nc3sccn23)c1	inconclusive: 44.7 µM [inhibitor, partial curve]	–
CC1=C[C@@H](CN2C(=O)C(C)=C(C)C2=O)[C@H](C(C)C)C[C@H]1Cc1nc2c(C)cccc2[nH]1	active: 22.4 µM	–
O[C@@H]1C[C@@H](c2nc(-c3ccc(C(F)(F)F)cc3)no2)N(Cc2cccc(OC(F)(F)F)c2)C1	inconclusive: 44.7 µM [inhibitor, partial curve, poor fit]	–
Cc1cccc(-c2cccc(NC(=O)C3CCCN(C(=O)CC(F)(F)F)C3)c2)c1 (configuration not stated)	inconclusive: 56.2 µM [inhibitor, partial curve, poor fit]	–
COc1ccc(-c2ccc(C(=O)NCC3CC3)cc2)nn1	inconclusive: 56.2 µM [inhibitor, partial curve, poor fit]	–
COc1ccc(CCNC(=O)C2CN(C(C)C)C(=O)N2)cc1 (configuration not stated)	–	inactive: -16.1% [at 138 µM]
O=C(CN1C(=O)NC(c2ccc(Cl)cc2)C2=C1COC2=O)Nc1cccc(F)c1 (configuration not stated)	active: 28.2 µM	–
Cc1cc(=O)n(CC(=O)Nc2ccc(Br)cc2)c(N2CCC(C)CC2)n1	inconclusive: 14.1 µM [inhibitor, full curve, poor fit]	–
COc1ccc(CN2CCNc3cc(Nc4ccccc4)ncc3C2)cc1	inconclusive: 70.8 µM [inhibitor, partial curve, poor fit]	–
O=C(NCc1cccnc1)[C@@H]1C[C@@H](c2ccc(F)cc2)N(CCOc2ccccc2)C1	inconclusive: 89.1 µM [inhibitor, single point]	–
CCC(=O)N1CCN(C(=O)Cc2ccc(C)c(C)c2)[C@H]2CS(=O)(=O)C[C@H]21	–	inactive: -9.42%
CCOc1cc(=O)n2c(c1C(=O)Nc1cc(F)ccc1Cl)CCCC2	inconclusive: 39.8 µM [inhibitor, partial curve]	–
COc1cccc(CC(=O)N2CCC3(CC2)CC(Cc2nc(-c4cccnc4)no2)CCO3)c1 (configuration not stated)	–	inactive: -20.8%
Cc1cc(=O)n(CC(=O)Nc2ccccc2F)c(-c2ccc(F)cc2)n1	inconclusive: 79.4 µM [inhibitor, single point]	–
O=C(Cc1cccnc1)N1CCCC(c2nc(CCOCC3CCCC3)no2)C1 (configuration not stated)	–	inactive: -8.29%
CS(=O)(=O)N1CC[C@H]2C(=O)NCCCCCCN(Cc3ccncc3)[C@@H]2C1	–	inactive: -3.29%

Structure (SMILES)	Potency	activity change, negative = cytotoxicity
Cc1nn(Cc2ccccc2)c(C)c1[C@@H]1C=C[C@@H](NS(=O)(=O)c2cccs2)C1	inconclusive: 25.1 µM [inhibitor, full curve, poor fit]	–
c1ccc(Oc2cc3c(cn2)NCCN(CC2CCOCC2)C3)cc1	–	inactive: -20.8% [at 138 µM]
c1ccc(-c2nnc3ccc(Nc4ccc(N5CCOCC5)cc4)nn23)nc1	inconclusive: 56.2 µM [inhibitor, partial curve, poor fit]	–
O=C(Nc1cccc(-c2nnc3n2CCCC3)c1)c1ccc(Cl)cc1	inconclusive: 50.1 µM [inhibitor, partial curve, poor fit]	–
Cc1nnc2ccc(N3CCCC(NS(C)(=O)=O)C3)nn12 (configuration not stated)	–	inactive: -4.61% [at 138 µM]
COCCNC(=O)C1CCCN(c2ccnc3ccnn23)C1 (configuration not stated)	–	inactive: -24%
COc1ccc(CNC(=O)C2CN(C(C)C)C(=O)N2)cc1 (configuration not stated)	–	inactive: -20.6% [at 138 µM]
COc1ccccc1-c1cccc(CN2CCCC(C(=O)NCCCc3ccccc3)C2)c1 (configuration not stated)	active: 35.5 µM	–
CC1(C(=O)N2CCN(Cc3ccc4c(c3)OCO4)CC2)CCCCC(=O)N1 (configuration not stated)	–	inactive: -11.5%
O=C(Nc1cccc(Cl)c1)[C@@H]1C[C@H](c2ccc(F)cc2)N([S+](=O)([O-])C2CC2)C1	active: 79.4 µM	–
CCOC(=O)C1CCN(C(=O)c2cn3ccnc(-c4ccc(OC)cc4)c3n2)CC1	inconclusive: 56.2 µM [inhibitor, partial curve, poor fit]	–
CCn1c2c(c(=O)n1Cc1ccccc1)CCN(C(=O)Cc1ccc3c(c1)OCO3)C2	inconclusive: 10 µM [inhibitor, full curve, poor fit]	–
CC(C)CNC(=O)c1nc2cccnc2n(CCc2ccccc2)c1=O	inconclusive: 44.7 µM [inhibitor, partial curve, poor fit]	–
Cc1ccc(NC(=O)N2CCc3c(c4ccccc4n3C)C2)cc1	inconclusive: 44.7 µM [inhibitor, partial curve, poor fit]	–
COc1cccc(-c2nc(-c3c(C)noc3C)cc3cc(C)oc23)c1	inconclusive: 79.4 µM [inhibitor, partial curve, poor fit]	–
CCOc1ccccc1C(=O)N1[C@@H](c2ccco2)[C@@H](C(=O)O)C[C@]12CCCCN(CCOC)C2=O	inconclusive: 70.8 µM [inhibitor, partial curve, poor fit]	–
COc1ccc(-n2nc(C3CCN(C(=O)c4ccccc4F)CC3)[nH]c2=O)cc1	–	inactive: -9.24%
COc1ccc(N2CC(c3noc(-c4cccc(C)c4)n3)CC2=O)cc1 (configuration not stated)	inconclusive: 44.7 µM [inhibitor, partial curve, poor fit]	–
CC(C)(C)c1cc(C[C@H]2CNCC[C@H]2CC(=O)Nc2ccccc2)no1	active: 112 µM	–
O=C(c1cc(F)ccc1F)N1CCOc2ccc(CN3CCc4ccccc4C3)cc2C1	inconclusive: 39.8 µM [inhibitor, partial curve, poor fit]	–
O=C(Cc1ccc(F)cc1)N1CCCN(CCc2ccccc2)c2ccccc21	active: 35.5 µM	–
